Measured values reported in PubChem BioAssay AID624202 (National Center for Advancing Translational Sciences (NCATS), 2012).
In all, about 380,000 compounds went through this assay and about 4,000 (1.1%) were called active. The shares of active, inactive and inconclusive entries below differ from those in the screen. Calls come from the whole dose curve; as a rule, active = well fitted activation curve with a large enough effect; inconclusive = small, poorly fitted or top-dose-only effect; inactive = no such curve, though single readings can be large or run the other way. Potencies of inconclusive entries are doubtful fits and often do not repeat.

Assay: qHTS Assay to Identify Small Molecule Activators of BRCA1 Expression; note: nearly all actives have a fitted effect of over 80% in size
Conditions: MCF7-BRCA1-FFLuc reporter, luminescence, 48 h; activation: at 46.1 µM (top of the series), scaled: vehicle 0%, 10 µM genistein 100% unless noted
How it was run: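 MCF7 cells carrying a BRCA1-firefly luciferase reporter (2000 cells/well, phenol-red free MEM) were attached for 2 h at 37 °C, then given compounds for 48 h. Luminescence was read 15 min after luciferase reagent; activity normalized to genistein (10 microM) and DMSO.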
Potency is the fitted concentration of half-maximal effect; tags give direction and shape of the fitted curve.

Row | SMILES | Potency | activation
1 | CC1(C)Cc2c(c(-c3ccco3)nc3sc4c(NCC5CCCO5)ncnc4c23)CO1 (configuration not stated) | inactive | 
2 | Cc1cccc(NC(=S)NC(=O)/C=C/c2ccccc2)n1 | inconclusive: 35.5 µM [activator, single point] | 
3 | Cc1ccc(-n2nc3c(N4CCC(C(=O)NCc5cccc(F)c5)CC4)nnc(C)c3c2C)cc1 | inactive | 
4 | CCOc1ccc(N2C(=O)C(CC(=O)Nc3ccccc3)N(Cc3ccccn3)C2=S)cc1 (configuration not stated) | inactive | 
5 | C/C(=N\NC(=O)c1sccc1C)c1cccnc1 | active: 2.82 µM | 
6 | CC(/C=C/c1ccco1)=N/NC(=O)OC(C)(C)C | inconclusive: 17.8 µM [activator, single point] | 
7 | CCOC(=O)C1CCCN(C(=O)CCc2nnc(-c3ccc(C(C)=O)s3)o2)C1 (configuration not stated) | active: 12.6 µM | 
8 | O=C(c1ccccc1)c1ccc2c(c1)OCCCO2 | active: 1.41 µM | 
9 | CC1=NC(=O)C(N=Nc2cccc(C(=O)O)c2)N1c1ccccc1 (configuration not stated) |  | inconclusive: -68.4% [activator]
10 | O=C(/C=C/c1cccs1)N1CCCCC1 | inconclusive: 12.6 µM [activator, partial curve, poor fit] | 
11 | c1ccc(-c2ccc(OCCCn3cncn3)cc2)cc1 | active: 11.2 µM | 
12 | CCN(CC)c1ccc(Nc2nc(-c3cccnc3)cs2)cc1 | active: 3.98 µM | 
13 | O=C(Nc1ccc2c(c1)OCCO2)c1cccs1 | inconclusive: 1.26 µM [activator, full curve, poor fit] | 
14 | O=C(Nc1ccc2c(c1)OCO2)c1ccc2sc([C@@H]3O[C@H](CO)[C@@H](O)[C@H]3O)nc2c1 | active: 3.16 µM | 
15 | C=CCC1(CC=C)CCCN1C(=O)C1CCC(=O)N(CCc2ccccc2)C1 (configuration not stated) | inconclusive: 8.91 µM [activator, partial curve, poor fit] | 
16 | CCOC(=O)Nc1sc2c(c1C#N)CCCC2 | inconclusive: 7.94 µM [activator, partial curve, poor fit] | 
17 | N/C(=N\OC(=O)CSc1ccccc1)c1ccccn1 | active: 6.31 µM | 
18 | Cc1ccc(-c2cc(C(=O)N3CCN(c4ncccn4)CC3)c3cc(Br)ccc3n2)o1 | inactive | 
19 | Cn1c(COc2ccccc2)nc2ccccc21 | active: 10 µM | 
20 | CCCc1ccc(OCc2ccc(C(=O)Nc3cccc(C)n3)o2)c(OC)c1 | inconclusive: 0.794 µM [activator, full curve, poor fit] | 
21 | COc1ccc(C(=O)Nc2ccc3[nH]ccc3c2)cc1 |  | inconclusive: -58.1% [activator]
22 | O=C(O)c1ccccc1N/N=C/c1c(Sc2nnnn2-c2ccccc2)nc2ccccn2c1=O | inactive | 
23 | Cc1ccc(C(=O)Nc2nc(C)c(C)s2)o1 | inconclusive: 31.6 µM [activator, single point] | 
24 | Cc1ccc(-c2cccc(C3CC=CC4C3C(=O)N(Cc3ccccc3)C4c3ccc4ccccc4c3)c2)cc1 (configuration not stated) | inactive | 
25 | N#C/C(=C/c1ccc(F)cc1)C(N)=S | inactive | 
26 | COc1ccc(OCc2nnc(SCC(=O)NC3CC4CCC3C4)o2)cc1 (configuration not stated) | inconclusive: 20 µM [activator, partial curve, poor fit] | 

Row | SMILES | Potency | activation
27 | CCCC(=O)N1CCCC(c2nc(-c3cccc(OC)c3)no2)C1 (configuration not stated) | inconclusive: 2.51 µM [activator, full curve, poor fit] | 
28 | COc1ccc(NC(=O)c2cc(C(=O)Nc3ccc(OC)cc3OC)cc([N+](=O)[O-])c2)c(OC)c1 | inactive | 
29 | Cc1cc(C)nc(N2CCC(C(=O)N3CCN(c4cc(Cl)ccc4C)CC3)CC2)n1 | inactive | 
30 | Cc1ccc(NS(=O)(=O)c2cc(Br)cnc2N)c(Cl)c1 | inactive | 
31 | CC(C)(C)C(=O)Nc1nnc(SCc2cccc(F)c2)s1 | active: 14.1 µM | 
32 | Cc1ccc(-c2noc(COc3ccccc3C)n2)cc1 | inconclusive: 22.4 µM [activator, single point] | 
33 | COc1cc2c(c(OC)c1OC)-c1ccc(SC)c(=O)cc1C(NC(=O)C(F)(F)F)CC2 (configuration not stated) |  | inconclusive: -79.9% [activator]
34 | S=C(NCc1ccco1)Nc1ccc(Br)cc1Cl | active: 10 µM | 
35 | c1ccc(Oc2cc(-n3cncn3)ncn2)cc1 | inconclusive: 35.5 µM [activator, single point] | 
36 | CCCC(=O)Nc1cc(-c2nc3ncccc3o2)ccc1Cl | inactive | 
37 | CC(=O)c1cccc(OCc2cc(C(=O)N3C[C@@H](C)O[C@@H](C)C3)no2)c1 | inconclusive: 35.5 µM [activator, single point] | 
38 | C/C(=N\NC(=O)COc1ccc(C)cc1C(C)C)c1cc2ccccc2o1 | inconclusive: 12.6 µM [activator, partial curve, poor fit] | 
39 | CN(C)c1ccc(/C=C2\C(=O)Nc3ccccc32)cc1 | inconclusive: 31.6 µM [activator, single point] | 
40 | N#C/C(=C/c1ccc(OCc2ccc(C(=O)O)cc2)cc1)C(=O)Nc1ccccc1 | inactive | 
41 | O=C(CCCOc1ccccc1)Nc1nc2ccccc2[nH]1 | active: 6.31 µM | 
42 | Cc1ccc(NC(=O)c2ccco2)c([N+](=O)[O-])c1 | active: 7.94 µM | 
43 | Cc1ccc(N2CCN(S(=O)(=O)c3cc(Br)cc4c3N(C(=O)C3CC3)CC4)CC2C)cc1 (configuration not stated) | inactive | 
44 | CCC(CC)c1nn2cc(-c3ccccc3)nc2s1 | inconclusive: 0.562 µM [activator, full curve, poor fit] | 
45 | Cc1cc(OCc2cc(C(=O)N(C)C3CCOC3)no2)cc(C)c1Cl (configuration not stated) | active: 2.82 µM | 
46 | COc1cc(O)c2c(=O)c(-c3ccc(O[C@@H]4O[C@H](CO)[C@@H](O)[C@H](O)[C@H]4O)cc3)coc2c1 | active: 2 µM | 
47 | COc1cc(/C=C2\N=C3CCCCCN3C2=O)ccc1O | inconclusive: 35.5 µM [activator, single point] | 
48 | Cc1cc(C)cc(NC(=O)c2cc(Cl)sc2Cl)c1 | inactive | 
49 | O=C(COC(=O)/C=C/c1ccc(S(=O)(=O)N2CCOCC2)cc1)Nc1ccc(F)c(F)c1F | inactive | 
50 | CCCCC(=O)NC(c1ccc(OC)cc1)c1ccc2cccnc2c1O (configuration not stated) | inactive | 
51 | CCn1ccnc1CN(C)C(=O)c1cc(COc2ccc(Cl)cc2OC)on1 | inconclusive: 10 µM [activator, single point] | 
52 | Cc1ccc(Oc2ncc(CN3CCOCC3)s2)cc1 | inconclusive: 17.8 µM [activator, partial curve, poor fit] | 

Row | SMILES | Potency | activation
53 | Cc1cc(NCCCN2CCOCC2)n2ncc(-c3ccccc3)c2n1 | inconclusive: 1.58 µM [activator, full curve, poor fit] | 
54 | CCc1ccc(NC2Nc3cc(C)nn3S2)cc1 (configuration not stated) | inconclusive: 2.24 µM [activator, partial curve, poor fit] | 
55 | O=C(CSc1ccccn1)Nc1ccc2c(c1)C(=O)c1ccccc1C2=O | inconclusive: 1.58 µM [activator, partial curve, poor fit] | 
56 | Nc1[nH]n(-c2ccccc2)c(=O)c1N=Nc1ccc2c(c1)OCO2 | inconclusive: 3.55 µM [activator, full curve, poor fit] | 
57 | CC1CN(CCOCCOc2ccccc2-c2ccccc2)CC(C)O1 (configuration not stated) | inactive | 
58 | O=C(NC1CCCCC1)c1ccc2c(c1)OCO2 | inconclusive: 11.2 µM [activator, partial curve, poor fit] | 
59 | O=C(Nc1ccc(Cl)cn1)Nc1ccc(Cl)cn1 | inactive | 
60 | O=C(NC1CCCCC1)C(=S)NCCc1ccccc1 | active: 11.2 µM | 
61 | Cc1cccc(NC(=O)c2cc(-c3ccc(C)c(C)c3O)n[nH]2)c1 | inconclusive: 10 µM [activator, partial curve, poor fit] | 
62 | Nc1ccc2oc(-c3cccc(Br)c3)nc2c1 | inconclusive: 0.631 µM [activator, full curve, poor fit] | 
63 | CC1(C)Nc2ccccc2C(=O)N1c1ccc(Br)cc1 | inconclusive: 2 µM [activator, partial curve, poor fit] | 
64 | CCC(=O)Nc1cccc(NC(=S)NC(=O)c2ccccc2C)c1 | inconclusive: 22.4 µM [activator, single point] | 
65 | Cc1ccc(N=C2C(=S)N(c3ccc(C)cc3)C(=N)N2/N=C/c2ccc(Cl)cc2)cc1 | inactive | 
66 | Oc1cc(NCc2cccnc2)ccc1-c1nc2ccccc2o1 | inconclusive: 2.82 µM [activator, full curve, poor fit] | 
67 | COc1ccccc1/C=C/C(=O)NCCC1=CCCCC1 | active: 2.82 µM | 
68 | CCn1c(C)nc2cc(C(=O)N/N=C/c3ccccc3C)ccc21 | inconclusive: 2.51 µM [activator, full curve, poor fit] | 
69 | CN(C)CCNC(=O)c1cc2c(s1)-c1ccccc1OC2 | inconclusive: 15.8 µM [activator, partial curve, poor fit] | 
70 | Clc1cccc(-c2cc3nc(NCCOc4ccccc4)ccn3n2)c1 | inconclusive: 3.55 µM [activator, full curve, poor fit] | 
71 | COc1ccc(C(=O)Nc2nnc(-c3ccccc3)s2)cc1 | active: 7.08 µM | 
72 | O=c1cc(-c2ccccc2Cl)oc2ccc([N+](=O)[O-])c(O)c12 | inactive | 
73 | Fc1ccccc1Nc1ncnc2c1nc1n2CCCCC1 | inconclusive: 2.82 µM [activator, full curve, poor fit] | 
74 | O=C(NC1CC1)c1scc2c1OCCO2 | inactive | 
75 | Cc1nc(-c2cccc(NC(=O)c3ccc(-n4nccc4C)cc3)c2)cs1 | inactive | 
76 | Cc1ccccc1-n1c(C)cc(/C=C(\C#N)C(=O)NCC2CCCO2)c1C (configuration not stated) | active: 14.1 µM | 
77 | COc1ccc(OC)c(N/C=C/C(=O)c2ccccc2)c1 |  | inconclusive: -44.8% [activator]
